The supplement of paper PMC4967469
The IC50 comes from the fitted curve, where viability falls to half of the control; a limit (>, <) means that the fit lies beyond the doses tested. AUC is the area under the same curve over the 256-fold range up to the top dose, as a fraction: 1 means no effect, lower means more sensitive. For some of these results: Where the top dose is marked as inferred, it comes from the curve model; the source does not state it.

Tests used:
Test in all cases: Viability of human cancer cell lines after 72 h of drug (GDSC screen)
QL-XI-92 = compound: C=CC(=O)Nc1cc(NC(=O)c2ccc(C)c(NC(=O)c3ccno3)c2)cc(C(F)(F)F)c1 [QL-XI-92]; settings: top dose 10.24 µM; top dose inferred
Procedure: (§1)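 Human cancer cell lines in 384-well plates, medium with 10% serum, drug for 72 h over a 256-fold dose range (nine 2-fold or five 4-fold steps up to the top dose). Adherent lines were fixed and stained with the nucleic acid dye Syto60, suspension lines read with resazurin; signal relative to control wells, capped at 0 and 100%. One two-parameter sigmoid per drug and line, fitted in a mixed model over all curves with the slope shared within a line.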

WHI-P97 = compound: COc1cc2ncnc(Nc3cc(Br)c(O)c(Br)c3)c2cc1OC [WHI-P97]; settings: top dose 10.24 µM; top dose inferred
Procedure: as §1

S-Trityl-L-cysteine = compound: N[C@@H](CSC(c1ccccc1)(c1ccccc1)c1ccccc1)C(=O)O [S-Trityl-L-cysteine]; settings: top dose 5.12 µM; top dose inferred
Procedure: as §1

EHT 1864 = compound: O=c1cc(CN2CCOCC2)occ1OCCCCCSc1ccnc2cc(C(F)(F)F)ccc12 [EHT 1864]; settings: top dose 10 µM; top dose inferred
Procedure: as §1

NU-7441 = compound: O=c1cc(N2CCOCC2)oc2c(-c3cccc4c3sc3ccccc34)cccc12 [NU-7441]; settings: top dose 2 µM; top dose inferred
Procedure: as §1

Vinorelbine = compound: CCC1=C[C@@H]2CN(C1)Cc1c([nH]c3ccccc13)[C@@](C(=O)OC)(c1cc3c(cc1OC)N(C)[C@H]1[C@@](O)(C(=O)OC)[C@H](OC(C)=O)[C@]4(CC)C=CCN5CC[C@]31[C@@H]54)C2 [Vinorelbine]; settings: top dose 0.064 µM; top dose inferred
Procedure: as §1

AG-014699 = compound: CNCc1ccc(-c2[nH]c3cc(F)cc4c3c2CCNC4=O)cc1 [AG-014699]; settings: top dose 5 µM; top dose inferred
Procedure: as §1

XL-184 = compound: COc1cc2nccc(Oc3ccc(NC(=O)C4(C(=O)Nc5ccc(F)cc5)CC4)cc3)c2cc1OC [XL-184]; settings: top dose 5.12 µM; top dose inferred
Procedure: as §1

Gefitinib = compound: COc1cc2ncnc(Nc3ccc(F)c(Cl)c3)c2cc1OCCCN1CCOCC1 [Gefitinib]; settings: top dose 0.5 µM
Procedure: as §1

Phenformin = compound: N=C(N)NC(=N)NCCc1ccccc1 [Phenformin]; settings: top dose 4000 µM; top dose inferred
Procedure: as §1

Row | Cell Line | AUC (QL-XI-92) | IC50 (QL-XI-92) | AUC (WHI-P97) | IC50 (WHI-P97) | AUC (S-Trityl-L-cysteine) | IC50 (S-Trityl-L-cysteine) | AUC (EHT 1864) | IC50 (EHT 1864) | AUC (NU-7441) | IC50 (NU-7441) | AUC (Vinorelbine) | IC50 (Vinorelbine) | AUC (AG-014699) | IC50 (AG-014699) | AUC (XL-184) | IC50 (XL-184) | AUC (Gefitinib) | IC50 (Gefitinib) | AUC (Phenformin) | IC50 (Phenformin)
1 | THP-1 (acute myeloid leukaemia, suspension) | 0.882 | 9 µM | 0.524 | 0.739 µM | 0.985 | > 5.12 µM | 0.942 | > 10 µM | 0.959 | > 2 µM |  |  |  |  |  |  |  |  |  | 
2 | TT2609-C02 (thyroid, adherent) | 0.958 | > 10.2 µM | 0.981 | > 10.2 µM |  |  | 0.943 | > 10 µM | 0.948 | > 2 µM | 0.566 | 0.00615 µM | 0.933 | > 5 µM | 0.972 | > 5.12 µM | 0.981 | > 0.5 µM | 0.976 | > 4000 µM
3 | TYK-nu (ovary, adherent) | 0.981 | > 10.2 µM | 0.979 | > 10.2 µM |  |  | 0.96 | > 10 µM | 0.914 | > 2 µM | 0.876 | > 0.064 µM | 0.954 | > 5 µM | 0.958 | > 5.12 µM | 0.965 | > 0.5 µM | 0.803 | 2160 µM
4 | U-118-MG (glioma, adherent) | 0.98 | > 10.2 µM | 0.963 | > 10.2 µM |  |  | 0.812 | 6.44 µM | 0.957 | > 2 µM | 0.868 | > 0.064 µM | 0.805 | 3.01 µM | 0.853 | 5.03 µM | 0.967 | > 0.5 µM | 0.847 | 3670 µM
5 | UACC-62 (melanoma, adherent) | 0.984 | > 10.2 µM | 0.983 | > 10.2 µM |  |  | 0.978 | > 10 µM | 0.978 | > 2 µM | 0.776 | 0.0253 µM | 0.942 | > 5 µM | 0.986 | > 5.12 µM | 0.981 | > 0.5 µM | 0.802 | 1940 µM
6 | UACC-893 (breast, adherent) | 0.944 | > 10.2 µM | 0.908 | > 10.2 µM |  |  | 0.797 | 6.66 µM | 0.982 | > 2 µM | 0.947 | > 0.064 µM | 0.975 | > 5 µM | 0.968 | > 5.12 µM | 0.979 | > 0.5 µM | 0.699 | 1110 µM
7 | VMRC-RCZ (kidney, adherent) | 0.895 | > 10.2 µM | 0.963 | > 10.2 µM |  |  | 0.906 | > 10 µM | 0.919 | > 2 µM | 0.721 | 0.019 µM | 0.926 | > 5 µM | 0.956 | > 5.12 µM | 0.978 | > 0.5 µM | 0.856 | > 4000 µM
8 | WM35 (melanoma, adherent) | 0.922 | > 10.2 µM | 0.98 | > 10.2 µM |  |  | 0.95 | > 10 µM | 0.894 | > 2 µM | 0.763 | 0.0233 µM | 0.986 | > 5 µM | 0.873 | 5 µM | 0.772 | 0.195 µM | 0.679 | 796 µM
9 | WM793B (melanoma, adherent) | 0.907 | > 10.2 µM | 0.97 | > 10.2 µM |  |  | 0.981 | > 10 µM | 0.966 | > 2 µM | 0.806 | 0.0368 µM | 0.956 | > 5 µM | 0.914 | > 5.12 µM | 0.956 | > 0.5 µM | 0.65 | 682 µM
10 | WM1552C (melanoma, adherent) | 0.929 | > 10.2 µM | 0.987 | > 10.2 µM |  |  | 0.978 | > 10 µM | 0.924 | > 2 µM | 0.879 | > 0.064 µM | 0.984 | > 5 µM | 0.988 | > 5.12 µM | 0.988 | > 0.5 µM | 0.586 | 431 µM
11 | WM-115 (melanoma, adherent) | 0.816 | 7.33 µM | 0.891 | > 10.2 µM |  |  | 0.977 | > 10 µM | 0.924 | > 2 µM | 0.888 | > 0.064 µM | 0.944 | > 5 µM | 0.903 | > 5.12 µM | 0.959 | > 0.5 µM | 0.463 | 193 µM
12 | YAPC (pancreas, adherent) | 0.972 | > 10.2 µM | 0.984 | > 10.2 µM |  |  | 0.973 | > 10 µM | 0.983 | > 2 µM | 0.957 | > 0.064 µM | 0.974 | > 5 µM | 0.965 | > 5.12 µM | 0.977 | > 0.5 µM | 0.744 | 1510 µM
13 | YKG-1 (glioma, adherent) | 0.853 | 8.19 µM | 0.972 | > 10.2 µM |  |  | 0.979 | > 10 µM | 0.966 | > 2 µM | 0.534 | 0.00495 µM | 0.961 | > 5 µM | 0.917 | > 5.12 µM | 0.979 | > 0.5 µM | 0.736 | 1190 µM
14 | huH-1 (liver, adherent) | 0.982 | > 10.2 µM | 0.984 | > 10.2 µM |  |  | 0.896 | > 10 µM | 0.963 | > 2 µM | 0.984 | > 0.064 µM | 0.983 | > 5 µM | 0.984 | > 5.12 µM | 0.964 | > 0.5 µM | 0.878 | > 4000 µM
